From PMC10017685 (Nature Communications, 2023)
Read-outs that look alike come from different tables or passages of the source.

Legend:
Sheep red blood cells = test: Hemolysis assay (HC50); assay type: cell-based; conditions: for HC50 (µM/ml): sheep erythrocytes, recalculated from μg/mL values, estimated as in https://pubmed.ncbi.nlm.nih.gov/29307075/; for HC50: sheep red blood cells 4% (v/v) in PBS, peptides 1-[…], 60 min at 37 °C, hemoglobin release at 590 nm, 1% Triton-X 100 = 100% hemolysis, triplicate, HC50 by ic50.tk
Procedure: The hemolysis assay was conducted according to the procedure described previously. Sheep red blood cells (Defibrillated Sheep Blood, Graso, Poland) were used. […] Then the solution of RBCs was added to each well (100 μL with a 4% concentration of erythrocytes (v/v). The control wells for 0 and 100% hemolysis were also prepared: RBCs suspended in PBS and 1% of Triton-X 100, respectively. After that the plates were incubated for 60 min at 37 °C and then centrifuged at 800 × g for 10 min at 4 °C (Sorvall ST 16R Centrifuge, Thermo Scientific). The supernatant was carefully […] to new microtiter plates and the release of hemoglobin was measured at 590 nm (Multiskan™ GO Microplate Spectrophotometer, Thermo Scientific). Hemolysis for each concentration was calculated as the percentage of control with 100% hemolysis. All experiments were conducted in triplicate. The final values of HC50 were computed using ic50.tk tool.

E. coli ATCC 25922 = assay type: cell-based, Escherichia coli
Procedure: (§1) Fresh cultures were used in antimicrobial assay. […] Moreover MBC was evaluated. […] All experiments were conducted in triplicate.

P. aeruginosa ATCC 9027 = assay type: cell-based, Pseudomonas aeruginosa; conditions: triplicate; for P. aeruginosa ATCC 9027 MIC: second experimental round, broth microdilution (CLSI), Mueller-Hinton Broth, 0.5 × 10^5 CFU/mL, 1-[…], 18 h at 37 °C; for P. aeruginosa ATCC 9027 MBC: second round, MIC well and two higher concentrations seeded on agar plates, no visible colonies
Procedure: as §1

S. aureus ATCC 33591 = assay type: cell-based, Staphylococcus aureus
Procedure: as §1

[1] = tested on: A. baumannii ATCC BAA 1605; assay type: cell-based, Acinetobacter baumannii; conditions: triplicate; for A. baumannii ATCC BAA 1605 MIC: second experimental round, broth microdilution (CLSI), Mueller-Hinton Broth, 0.5 × 10^5 CFU/mL, 1-[…], 18 h at 37 °C; for A. baumannii ATCC BAA 1605 MBC: second round, MIC well and two higher concentrations seeded on agar plates, no visible colonies
Procedure: as §1

E. coli ATCC 43827 = assay type: cell-based, Escherichia coli
[2] = second experimental round, broth microdilution (CLSI), Mueller-Hinton Broth, 0.5 × 10^5 CFU/mL, 1-[…], 18 h at 37 °C, triplicate
[3] = second round, MIC well and two higher concentrations seeded on agar plates, no visible colonies, triplicate

SMILES | HC50 (µM/ml) (Sheep red blood cells) | HC50 (Sheep red blood cells) | E. coli ATCC 25922 MBC (E. coli ATCC 25922) | E. coli ATCC 25922 MIC (E. coli ATCC 25922) | E. coli ATCC 25922 MIC (E. coli ATCC 25922; [2]) | E. coli ATCC 25922 MBC (E. coli ATCC 25922; [3]) | P. aeruginosa ATCC 9027 MIC (P. aeruginosa ATCC 9027) | P. aeruginosa ATCC 9027 MBC (P. aeruginosa ATCC 9027) | S. aureus ATCC 33591 MBC (S. aureus ATCC 33591) | S. aureus ATCC 33591 MIC (S. aureus ATCC 33591; [2]) | S. aureus ATCC 33591 MBC (S. aureus ATCC 33591; [3]) | A. baumannii ATCC BAA 1605 MIC [1] | A. baumannii ATCC BAA 1605 MBC [1] | E. coli ATCC 43827 MBC (E. coli ATCC 43827) | E. coli ATCC 43827 MIC (E. coli ATCC 43827) | E. coli ATCC 43827 MIC (E. coli ATCC 43827; [2]) | E. coli ATCC 43827 MBC (E. coli ATCC 43827; [3]) | further results
CC[C@H](C)[C@H](N)C(=O)NCC(=O)N[C@@H](CCCCN)C(=O)N[C@@H](CC(C)C)C(=O)N[C@@H](Cc1ccccc1)C(=O)N[C@@H](CCCCN)C(=O)N[C@@H](CCCNC(=N)N)C(=O)N[C@H](C(=O)N[C@H](C(=O)N[C@@H](CCC(=O)O)C(=O)N[C@@H](CCCNC(=N)N)C(=O)N[C@H](C(=O)N[C@@H](CCCNC(=N)N)C(=O)N[C@@H](CCCNC(=N)N)C(=O)N[C@@H](Cc1ccccc1)C(=O)N[C@H](C(=O)N[C@@H](CCCNC(=N)N)C(=O)N[C@@H](CO)C(=O)N[C@@H](Cc1ccccc1)C(=O)N[C@@H](CC(C)C)C(=O)N[C@@H](CCCNC(=N)N)C(=O)N[C@H](C(=O)N[C@@H](CC(C)C)C(=O)N[C@@H](CCCNC(=N)N)C(N)=O)[C@@H](C)O)C(C)C)[C@@H](C)CC)C(C)C)[C@@H](C)CC [Papan] | 74 µM/ml | 310 µg/mL | 128 µg/mL | 64 µg/mL | 64 µg/mL | 128 µg/mL | 128 µg/mL | 128 µg/mL | 32 µg/mL | 32 µg/mL | 32 µg/mL | 32 µg/mL | 32 µg/mL | 64 µg/mL | 32 µg/mL | 32 µg/mL | 64 µg/mL | –
CC[C@H](C)[C@H](NC(=O)[C@@H](NC(=O)CN)C(C)C)C(=O)N[C@@H](CC(=O)O)C(=O)N[C@@H](Cc1ccccc1)C(=O)N[C@@H](CC(C)C)C(=O)N[C@@H](CCCCN)C(=O)NCC(=O)N[C@@H](C)C(=O)N[C@@H](C)C(=O)N[C@@H](CCCCN)C(=O)N[C@@H](CC(=O)O)C(=O)N[C@@H](CC(C)C)C(=O)N[C@@H](C)C(=O)NCC(=O)N[C@@H](Cc1c[nH]cn1)C(=O)N[C@H](C(=O)N[C@@H](C)C(=O)N[C@H](C(=O)N[C@@H](CCCCN)C(=O)N[C@H](C(=O)N[C@H](C(=O)N[C@@H](CCCCN)C(=O)N[C@@H](CCCCN)C(=O)N[C@@H](CC(C)C)C(N)=O)[C@@H](C)CC)C(C)C)[C@@H](C)O)C(C)C [Syphaxin-TIII5] | 151 µM/ml | >512 µg/mL | – | – | 256 µg/mL | 512 µg/mL | 512 µg/mL | >512 µg/mL | – | >512 µg/mL | >512 µg/mL | 64 µg/mL | 64 µg/mL | – | – | 512 µg/mL | 512 µg/mL | –
CC[C@H](C)[C@H](NC(=O)[C@H](Cc1ccccc1)NC(=O)[C@H](CCCCN)NC(=O)[C@H](CC(C)C)NC(=O)[C@H](CC(C)C)NC(=O)[C@H](CCCNC(=N)N)NC(=O)CN)C(=O)N[C@@H](CCCCN)C(=O)N[C@@H](CCCCN)C(=O)N[C@@H](C)C(=O)N[C@@H](CCC(N)=O)C(=O)N[C@@H](CCCNC(=N)N)C(=O)N[C@@H](CCCCN)C(=O)N[C@@H](Cc1ccccc1)C(=O)N[C@H](C(=O)N[C@@H](CCC(=O)O)C(=O)N[C@@H](CCCCN)C(=O)N[C@@H](Cc1ccccc1)C(=O)N[C@@H](C)C(=O)N[C@@H](CCCCN)C(N)=O)C(C)C [Rudyxin] | >150 µM/ml | >512 µg/mL | – | – | 128 µg/mL | 128 µg/mL | 32 µg/mL | 64 µg/mL | – | 512 µg/mL | >512 µg/mL | 8 µg/mL | 16 µg/mL | – | – | 4 µg/mL | 8 µg/mL | –
CC[C@H](C)[C@H](N)C(=O)N[C@@H](CC(C)C)C(=O)N[C@@H](CCCNC(=N)N)C(=O)N[C@@H](Cc1c[nH]c2ccccc12)C(=O)N1CCC[C@H]1C(=O)N[C@@H](Cc1c[nH]c2ccccc12)C(=O)N[C@@H](CCCNC(=N)N)C(=O)N[C@H](C(=O)N[C@@H](Cc1c[nH]c2ccccc12)C(=O)N[C@@H](CCCNC(=N)N)C(=O)N[C@@H](CCCNC(=N)N)C(N)=O)[C@@H](C)CC [Omiganan-TII10] | >232 µM/ml | >512 µg/mL | – | – | 64 µg/mL | 128 µg/mL | 128 µg/mL | 256 µg/mL | – | 64 µg/mL | 128 µg/mL | 256 µg/mL | 256 µg/mL | – | – | 64 µg/mL | 64 µg/mL | E. coli ATCC 25922 MBC (E. coli ATCC 25922; Supplementary Data 5D/5E): 128 µg/mL; E. coli ATCC 25922 MIC (E. coli ATCC 25922; Supplementary Data 5D/5E): 64 µg/mL; S. aureus ATCC 33591 MBC (S. aureus ATCC 33591; Supplementary Data 5D/5E): 128 µg/mL; S. aureus ATCC 33591 MIC (S. aureus ATCC 33591; Supplementary Data 5D/5E): 64 µg/mL; E. coli ATCC 43827 MBC (E. coli ATCC 43827; Supplementary Data 5D/5E): 64 µg/mL; E. coli ATCC 43827 MIC (E. coli ATCC 43827; Supplementary Data 5D/5E): 64 µg/mL
CC[C@H](C)[C@H](N)C(=O)NCC(=O)N[C@@H](CCCCN)C(=O)N[C@@H](CC(C)C)C(=O)N[C@@H](Cc1ccccc1)C(=O)N[C@@H](CCCCN)C(=O)N[C@@H](CCCNC(=N)N)C(=O)N[C@H](C(=O)N[C@@H](Cc1c[nH]cn1)C(=O)N[C@@H](CCC(=O)O)C(=O)N[C@@H](CCCNC(=N)N)C(=O)N[C@H](C(=O)N[C@@H](CCCCN)C(=O)N[C@@H](CCCNC(=N)N)C(=O)N[C@@H](Cc1ccccc1)C(=O)N[C@@H](CC(C)C)C(=O)N[C@@H](CCCNC(=N)N)C(=O)N[C@H](C(=O)N[C@@H](Cc1ccccc1)C(=O)N[C@@H](CC(C)C)C(=O)N[C@@H](CCCNC(=N)N)C(=O)N[C@@H](CCCNC(=N)N)C(=O)N[C@@H](CC(C)C)C(=O)N[C@@H](CCCNC(=N)N)C(N)=O)C(C)C)[C@@H](C)CC)[C@@H](C)CC [Varsavian] | 113 µM/ml | 512 µg/mL | 64 µg/mL | 64 µg/mL | 64 µg/mL | 64 µg/mL | 128 µg/mL | 256 µg/mL | 32 µg/mL | 32 µg/mL | 32 µg/mL | 32 µg/mL | 32 µg/mL | 128 µg/mL | 64 µg/mL | 64 µg/mL | 128 µg/mL | –
CC[C@H](C)[C@H](NC(=O)[C@H](Cc1ccccc1)NC(=O)[C@H](CCCCN)NC(=O)[C@H](CC(N)=O)NC(=O)[C@H](CC(C)C)NC(=O)[C@H](CCC(N)=O)NC(=O)CN)C(=O)N[C@@H](CCCCN)C(=O)N[C@@H](CCCCN)C(=O)N[C@@H](C)C(=O)N[C@@H](Cc1c[nH]c2ccccc12)C(=O)N[C@@H](CCCNC(=N)N)C(=O)N[C@@H](CCCCN)C(=O)N[C@@H](Cc1ccccc1)C(=O)N[C@@H](Cc1ccccc1)C(=O)N[C@@H](CCC(=O)O)C(=O)N[C@@H](CCCCN)C(=O)N[C@@H](Cc1ccccc1)C(=O)N[C@@H](C)C(=O)N[C@@H](CCCCN)C(N)=O [Armaganan] | >149 µM/ml | – | – | – | 8 µg/mL | 8 µg/mL | 32 µg/mL | 128 µg/mL | – | 64 µg/mL | 128 µg/mL | 4 µg/mL | 4 µg/mL | – | – | 8 µg/mL | 8 µg/mL | –
